From the supplement of paper PMC10441789
The other results are listed elsewhere or left out. Antibody binding of pooled human sera (four to six donors per pool; dilution not stated) to peptides of the Trypanosoma cruzi antigen TSSA on microarrays. Quantile-normalised fluorescence in arbitrary units, mean of duplicate arrays; higher = more binding. No active / inactive call. The uninfected pools are read here as the healthy donors of the same country. The strongest signals lie near the top of the scale (about 60,000).

Legend:
Experiment in all cases: antibody binding signal (normalised fluorescence) (arbitrary fluorescence units); higher = stronger serum antibody binding to peptide
[1] = test system: pooled sera of chronic Chagas disease patients, Argentina
Description: (§1)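 Microarray of overlapping 15-residue peptides of the four Trypanosoma cruzi TSSA reference variants and 8- to 13-residue peptides of TSSAII 24-62, probed with one serum pool per country.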

[2] = test system: pooled sera of chronic Chagas disease patients, Bolivia
Description: as §1

[3] = test system: pooled sera of chronic Chagas disease patients, Brazil
Description: as §1

[4] = test system: pooled sera of chronic Chagas disease patients, Colombia
Description: as §1

[5] = test system: pooled sera of chronic Chagas disease patients, Mexico
Description: as §1

[6] = test system: pooled sera of chronic Chagas disease patients, USA
Description: as §1

[7] = test system: pooled sera of uninfected people, Argentina
Description: as §1

[8] = test system: pooled sera of uninfected people, Bolivia
Description: as §1

[9] = test system: pooled sera of uninfected people, Colombia
Description: as §1

[10] = test system: pooled sera of uninfected people, Mexico
Description: as §1

[11] = test system: pooled sera of uninfected people, USA
Description: as §1

Sequence: SGTENKPATGEAP
- antibody binding signal [1]: 49900
- antibody binding signal [2]: 42700
- antibody binding signal [3]: 46300
- antibody binding signal [4]: 514
- antibody binding signal [5]: 867
- antibody binding signal [6]: 45700
- antibody binding signal [7]: 2050
- antibody binding signal [8]: 1520
- antibody binding signal [9]: 205
- antibody binding signal [10]: 408
- antibody binding signal [11]: 252

Sequence: STSSTPPSGT
- antibody binding signal [1]: 242
- antibody binding signal [2]: 212
- antibody binding signal [3]: 407
- antibody binding signal [4]: 418
- antibody binding signal [5]: 178
- antibody binding signal [6]: 116
- antibody binding signal [7]: 147
- antibody binding signal [8]: 122
- antibody binding signal [9]: 98
- antibody binding signal [10]: 224
- antibody binding signal [11]: 70.5

Sequence: CTTANGGSTISTPPS
- antibody binding signal [1]: 524
- antibody binding signal [2]: 673
- antibody binding signal [3]: 975
- antibody binding signal [4]: 125
- antibody binding signal [5]: 198
- antibody binding signal [6]: 221
- antibody binding signal [7]: 575
- antibody binding signal [8]: 225
- antibody binding signal [9]: 1950
- antibody binding signal [10]: 150
- antibody binding signal [11]: 140

Sequence: PGASSGEAE
- antibody binding signal [1]: 906
- antibody binding signal [2]: 110
- antibody binding signal [3]: 7910
- antibody binding signal [4]: 134
- antibody binding signal [5]: 140
- antibody binding signal [6]: 111
- antibody binding signal [7]: 180
- antibody binding signal [8]: 110
- antibody binding signal [9]: 220
- antibody binding signal [10]: 101
- antibody binding signal [11]: 84.9

Sequence: NGGSTISTPPSGTEK
- antibody binding signal [1]: 36200
- antibody binding signal [2]: 24600
- antibody binding signal [3]: 31300
- antibody binding signal [4]: 176
- antibody binding signal [5]: 23200
- antibody binding signal [6]: 6790
- antibody binding signal [7]: 759
- antibody binding signal [8]: 255
- antibody binding signal [9]: 277
- antibody binding signal [10]: 184
- antibody binding signal [11]: 170

Sequence: NKPATGEAPSQPG
- antibody binding signal [1]: 46000
- antibody binding signal [2]: 48200
- antibody binding signal [3]: 50600
- antibody binding signal [4]: 440
- antibody binding signal [5]: 168
- antibody binding signal [6]: 40500
- antibody binding signal [7]: 932
- antibody binding signal [8]: 647
- antibody binding signal [9]: 158
- antibody binding signal [10]: 241
- antibody binding signal [11]: 200

Sequence: TSSTPPSG
- antibody binding signal [1]: 290
- antibody binding signal [2]: 345
- antibody binding signal [3]: 264
- antibody binding signal [4]: 265
- antibody binding signal [5]: 245
- antibody binding signal [6]: 149
- antibody binding signal [7]: 158
- antibody binding signal [8]: 138
- antibody binding signal [9]: 69.2
- antibody binding signal [10]: 138
- antibody binding signal [11]: 130

Sequence: NGGSTSSTPP
- antibody binding signal [1]: 233
- antibody binding signal [2]: 229
- antibody binding signal [3]: 301
- antibody binding signal [4]: 187
- antibody binding signal [5]: 213
- antibody binding signal [6]: 131
- antibody binding signal [7]: 258
- antibody binding signal [8]: 227
- antibody binding signal [9]: 116
- antibody binding signal [10]: 133
- antibody binding signal [11]: 90.9

Sequence: STPPSGTDKKTAAGE
- antibody binding signal [1]: 29900
- antibody binding signal [2]: 30600
- antibody binding signal [3]: 31800
- antibody binding signal [4]: 4470
- antibody binding signal [5]: 25400
- antibody binding signal [6]: 5890
- antibody binding signal [7]: 633
- antibody binding signal [8]: 160
- antibody binding signal [9]: 218
- antibody binding signal [10]: 1350
- antibody binding signal [11]: 132

Sequence: GTENKPATG
- antibody binding signal [1]: 42200
- antibody binding signal [2]: 14700
- antibody binding signal [3]: 27200
- antibody binding signal [4]: 3560
- antibody binding signal [5]: 4970
- antibody binding signal [6]: 10600
- antibody binding signal [7]: 719
- antibody binding signal [8]: 2420
- antibody binding signal [9]: 215
- antibody binding signal [10]: 301
- antibody binding signal [11]: 230
